Out of some 2,200 compounds screened, fewer than 10 were called active. The list shows a part of the results. The source made no clear call on entries shown without one.
biological target: GTPase KRas (Homo sapiens) (UniProt P01116); experiment: Cysteine mutants labelled by reactive fragments (mass read-out) (AID 2202238); parameters: protein at 5 µM with 500 µM competing thiol for 1.5 h; conditions: KRAS G12D cysteine mutants, disulfide tethering, MALDI-TOF labeling; stronger effect = higher value; H27C mutant labeling; fragment at 500 µM
Sequence of UniProt P01116 (P01116 whole entry, looked up, the tested form may be a part): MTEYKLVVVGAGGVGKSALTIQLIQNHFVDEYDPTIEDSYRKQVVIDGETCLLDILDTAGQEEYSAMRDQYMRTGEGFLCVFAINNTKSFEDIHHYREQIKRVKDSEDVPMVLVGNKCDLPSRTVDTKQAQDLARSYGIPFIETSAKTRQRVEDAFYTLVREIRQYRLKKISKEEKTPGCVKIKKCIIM

Structure (SMILES) | percent labeling [%]
Cc1cc(=O)c(OCc2ccccc2)c(CNC(=O)CCS)n1C | 35.2
Cc1sc(C(N)=O)cc1NC(=O)CCS | 50.5
O=C(CCS)Nc1cccc(-c2cccnc2)c1 | 42.2
O=C(CCS)NC1(c2ccc(F)cc2F)CCCCC1 | 33.6
Cc1ccc(NC(=O)CCS)cc1Oc1ccc(Cl)cc1 | 24.7
Cc1cccc(=O)n1CC(C)(O)C(=O)NCCS (stereo not given) | 24.8
O=C(CCS)N1CCC(O)(C2CCCCC2)CC1 | 41
Cc1ccc(C2=CCN(C(=O)CCS)CC2)cc1 | 3.7
O=C(NCCS)c1cnnn1-c1ccccc1Br | 37.9
O=C(CCS)N1CCC(Cn2cc(Br)cn2)CC1 | 57.8
COC(=O)c1cn(C2CCCN(C(=O)CCS)C2)nn1 (stereo not given) | 33.4
O=C(NCCS)c1cnc(-c2ccc(C(F)(F)F)cc2)[nH]1 | 27.7
COC1CCCCN(CC(=O)NCCS)C1=O (stereo not given) | 30.3
O=C(CCS)N1CCC(c2cc(=O)[nH]o2)CC1 | 20.1
Cc1cc(NC(=O)CCS)ccc1Oc1ccncc1 | 48.9
O=C(CCS)N1CCC(c2ccc(F)cc2)CC1 | 40.5
O=C(CCS)Nc1ccn(CCc2ccccn2)n1 | 35.6
O=C(CCS)NCc1cccc(-c2ccn[nH]2)c1 | 36.6
O=C(CCS)N1CCN(c2ccc(O)cc2)CC1 | 34
O=C(NCCS)c1cn[nH]c1C1CCOCC1 | 42.1

Structure (SMILES) | percent labeling [%]
O=C(CCS)NCC(O)c1ccc(O)cc1 (stereo not given) | 29.1
COc1ncc(Br)cc1CNC(=O)CCS | 44.6
O=C(CCS)NC(c1ccc(Cl)c(F)c1)c1nn[nH]n1 (stereo not given) | 33.4
O=C(CCC(=O)N1CC(=O)Nc2ccccc21)NCCS | 32.7
CC(C)(CC(=O)NCCS)Cc1ccc(Cl)cc1 | 25.1
Cc1nc2c(o1)CCCC2CC(=O)NCCS (stereo not given) | 30.8
Cc1ccc(N(Cc2cccs2)C(=O)CCS)cc1 | 35.7
Cc1n[nH]c(=O)c(CNC(=O)CCS)c1C | 38.6
O=C(NCCS)c1ccnn1C1CCOCC1 | 37.6
O=C(NCCS)c1cn[nH]c1-c1ccc(F)c(Cl)c1 | 46.2
O=C(NCCS)C1(c2ccccc2F)CCCC1 | 38.3
O=C(CCS)NCCc1nc2ncc(Br)cn2n1 | 30.6
Cc1sc(=O)n(CC(=O)NCCS)c1-c1ccccc1 | 32.5
COCCN(CCOc1ccc(F)cc1)C(=O)CCS | 42.2
O=C(CCS)NC1CCCN(c2cc(=O)[nH]cn2)C1 (stereo not given) | 34.3
Cc1cc(N2CCC(NC(=O)CCS)C2)n(C)n1 (stereo not given) | 24.8
O=C(CCS)N1Cc2ccc(O)cc2C2(CC2)C1 | 33.9
O=C(NCCS)c1ccc(Cc2ccccc2)[nH]1 | 18.7
O=C(CCS)Nc1ccc2c(=O)cc[nH]c2c1 | 35.2
CC(C)(C)c1ccc2[nH]c(C(=O)NCCS)cc2c1 | 9.4

From PubChem BioAssay AID2202238 (Ras Initiative Chemistry Research Team, Frederick National …, 2025)
